# Experimental data reported in publication PMC6919601, “Identification of Plasmodium dipeptidyl aminopeptidase allosteric inhibitors by high throughput screening” (PLoS ONE, 2019).
# About 230 (0.21%) of roughly 110,000 compounds showed an effect of 50% or more. The list shows a part of the results.
# Target: DPAP1 (Plasmodium falciparum, UniProt Q8IIJ9)
# Assay: primary screen, percent inhibition; read by cleavage of a fluorogenic dipeptide substrate; higher = more effect of the substance
# Set-up: species or system P. falciparum D10 trophozoite lysates; single well
# 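Further: 30 min substrate incubation versus DMSO and 10 µM JCP410 controls.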
# Sequence of DPAP1 (Q8IIJ9 whole entry, looked up): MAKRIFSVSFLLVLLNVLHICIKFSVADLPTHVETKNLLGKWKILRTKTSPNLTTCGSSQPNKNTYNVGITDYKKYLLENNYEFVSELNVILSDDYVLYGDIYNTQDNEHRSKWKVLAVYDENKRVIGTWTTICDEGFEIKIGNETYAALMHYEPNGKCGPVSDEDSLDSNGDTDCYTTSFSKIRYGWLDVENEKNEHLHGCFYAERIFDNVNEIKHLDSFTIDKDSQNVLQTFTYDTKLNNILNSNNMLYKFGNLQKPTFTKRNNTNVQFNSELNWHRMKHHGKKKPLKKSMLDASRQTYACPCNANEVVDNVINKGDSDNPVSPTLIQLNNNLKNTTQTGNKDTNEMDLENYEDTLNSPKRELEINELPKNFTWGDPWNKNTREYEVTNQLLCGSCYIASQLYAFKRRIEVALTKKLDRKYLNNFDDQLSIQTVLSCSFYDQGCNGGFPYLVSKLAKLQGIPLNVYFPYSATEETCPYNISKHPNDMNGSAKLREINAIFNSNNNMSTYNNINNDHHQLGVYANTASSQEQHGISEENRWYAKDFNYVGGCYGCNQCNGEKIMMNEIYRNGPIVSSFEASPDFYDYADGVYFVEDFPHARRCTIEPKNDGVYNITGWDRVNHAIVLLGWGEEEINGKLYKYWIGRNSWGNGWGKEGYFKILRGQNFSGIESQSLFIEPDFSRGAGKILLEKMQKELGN
row,SMILES,% Inhibition @ 10 uM [%]
1,O=C(Cc1cccs1)Nc1cccc(C(F)(F)F)c1,-0.641
2,CC(=O)Nc1ccc2c3c(cccc13)C(=O)N(C)C2=O,-0.693
3,COc1ccc(S(=O)(=O)N(CC(=O)N2CCc3ccccc3C2)c2cc(C)cc(C)c2)cc1OC,3.68
4,Cc1cccc(-n2c(C)nnc2SCc2nc(-c3cccs3)no2)c1,-0.45
5,CCN(CC)CCCNS(=O)(=O)c1ccc(-c2cc(C(F)(F)F)no2)s1,-3.05
6,COc1ccccc1-c1nnc2sc(-c3cc4ccccc4o3)nn12,6.01
7,COc1cc(OC)c(OC)cc1/C=C1\N=C(c2ccc(Cl)cc2Cl)OC1=O,-4.27
8,CC(C)(C)S(=O)(=O)c1c(Br)cccc1Br,3.34
9,CS(=O)(=O)N(CC(=O)NCc1cccnc1)C1CCCCC1,-2.74
10,COc1ccc(S(=O)(=O)NC(c2ccccc2)c2ccccc2)cc1,-1.48
11,Cc1ccc(S(=O)(=O)NCc2ccccn2)cc1C,1.25
12,CC(C)CC(NC(=O)c1ccc(-n2cccc2)cc1)C(=O)NCC#N (stereo not shown),-9.15
13,Cn1c(=O)c2c(nc(NCc3ccc4c(c3)OCO4)n2Cc2cccc(Cl)c2)n(C)c1=O,-4.89
14,OC1CCC2CCCNC2C1 (stereo not shown),-5.47
15,COc1ccccc1N1C(=O)C2CC=CCC2C1=O (stereo not shown),-6.87
16,Cc1ccc(NC(=O)c2c(-c3ccccc3)noc2C)c(Br)c1,-1.36
17,CCOC(=O)c1c(/N=C(\C)C2=C(O)c3ccccc3C2=O)sc(C)c1C,-2.13
18,COc1cc(C(=O)N2CCN(C3CCN(Cc4ccccc4)CC3)CC2)cc(OC)c1OC,2.26
19,Cc1ccc(Cl)cc1N1CCN(C(=O)CN(c2ccccc2)S(C)(=O)=O)CC1,-11.1
20,CCCNC(=O)Cn1ncn2c(cc3cc(F)ccc32)c1=O,1.68
21,CCN(CC)Cn1[nH]c(=O)ccc1=O,1.26
22,O=C(CCc1ccccc1)NC1(C(F)(F)F)C(=O)Nc2c1c(=O)[nH]c(=O)n2-c1ccc(Cl)cc1 (stereo not shown),-4.75
23,CCC(=O)N1CCN(CC/N=C/C2=C(O)CC(C)(C)CC2=O)CC1,1.74
24,Oc1cccc(-n2ncnc2-c2ccccc2)c1,-0.307
25,Cc1nn(C)c(C)c1CN(C)C(=O)c1cc2nc(-c3cccs3)cc(C(F)(F)F)n2n1,-1.37

row,SMILES,% Inhibition @ 10 uM [%]
1,Cc1ccc(C)c(-c2csc(Nc3cccc4ccccc34)n2)c1,1.41
2,N#CCNC(=O)[C@@H](Cc1csc2ccccc12)NC(=O)OCc1ccccc1,-1.5
3,COC(=O)c1c(C)sc(C(c2cccc(Cl)c2)c2sc(C)c(C(=O)OC)c2O)c1O,-1.24
4,O=C(c1ccc(CS(=O)(=O)Cc2ccc(F)cc2)o1)N1CCC2(CC1)OCCO2,-2.72
5,O=C(O)c1c(CNCc2ccc3c(c2)OCO3)c2ccccc2n1Cc1ccccc1Cl,12.2
6,COc1ccccc1Nc1cc(C)nc2ccc(C)cc12,-1.91
7,COc1ccc(NC(=O)c2cc3cc(Br)ccc3oc2=O)cc1,2.76
8,CCN(CCN(C)C)C1CCN(Cc2ccccc2)CC1,-1.21
9,CS(=O)(=O)N(CC(=O)N1CCc2ccccc2C1)c1ccccc1F,-21.6
10,Cc1ccnc(NS(=O)(=O)c2ccc(NC(=O)c3ccc(C)o3)cc2)n1,5.07
11,Cc1ccc(C)c(NC(=O)C(C)N2C(=O)C3C4C=CC(C4)C3C2=O)c1 (stereo not shown),-7.97
12,CCOC(=O)C1=C(C)N=c2s/c(=C\c3cccc(O)c3)c(=O)n2C1c1ccccc1 (stereo not shown),6.11
13,COc1ccccc1-c1nnc(C2CCN(S(=O)(=O)c3ccc(Br)s3)CC2)o1,2.34
14,CC(=O)c1cccc(NC(=O)CCN2C(=O)c3ccccc3C2=O)c1,1.33
15,NC1=NC(=O)C(CC(=O)Nc2ccc(N3CCCCC3)cc2)S1 (stereo not shown),-4.4
16,Cc1nn(-c2ccccc2)c2c1N(CC(=O)NCC(C)c1ccccc1)C(=O)CS2 (stereo not shown),-3.79
17,COc1ccc(CCNC(=O)Nc2cccs2)c(OC)c1,-1.11
18,CC1CCN(CCCNC(=O)C2CCC(=O)N2C2CCCC2)CC1 (stereo not shown),3.79
19,OCCN1CCN(CCCN2c3ccccc3Sc3ccccc32)CC1,-1.91
20,Cc1ccccc1C(=O)NC(CC(=O)O)c1ccc(Cl)cc1 (stereo not shown),4.19
21,CCOC(=O)N1CCN(CC(O)c2ccc3cc[nH]c3c2)CC1 (stereo not shown),-1.08
22,CCCCc1[nH]nc2c1C(c1ccc(F)cc1F)C(C#N)=C(N)O2 (stereo not shown),-2.77
23,O=[N+]([O-])c1ccc(Cl)c(CN2CCN(c3ccccc3F)CC2)c1,-3.71
24,COc1ccc(-c2csc(NC(=O)c3ccccc3F)c2C(=O)O)cc1,6.23
